Among the data in PubChem BioAssay AID488969 (Vanderbilt High Throughput Screening Facility, 2010) are z-score values, retold here.

Whole data set: some 110,000 compounds, median “z-score” near -0.1, cut for the highest 2% near 2. The list shows a part of the results. Active and inactive are the calls of the source.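 Rule for the calls: active = z-score in the third read window above 3 or below -3; inactive = the rest.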

In this assay the target is Metabotropic glutamate receptor 8 (Rattus norvegicus) (UniProt P70579). The assay can be described thus: mGluR8 Gi/Go-coupled signaling modulation – cell-based, rat, thallium flux, HTS, primary screen (AID 488969). The note with it: HEK293 rat mGluR8, GIRK (G protein-gated inwardly rectifying potassium channel) thallium flux, FluoZin2; at 10 µM; stronger effect = higher value; submaximal glutamate (EC20) added with thallium.
Sequence of UniProt P70579 (P70579 whole entry, looked up): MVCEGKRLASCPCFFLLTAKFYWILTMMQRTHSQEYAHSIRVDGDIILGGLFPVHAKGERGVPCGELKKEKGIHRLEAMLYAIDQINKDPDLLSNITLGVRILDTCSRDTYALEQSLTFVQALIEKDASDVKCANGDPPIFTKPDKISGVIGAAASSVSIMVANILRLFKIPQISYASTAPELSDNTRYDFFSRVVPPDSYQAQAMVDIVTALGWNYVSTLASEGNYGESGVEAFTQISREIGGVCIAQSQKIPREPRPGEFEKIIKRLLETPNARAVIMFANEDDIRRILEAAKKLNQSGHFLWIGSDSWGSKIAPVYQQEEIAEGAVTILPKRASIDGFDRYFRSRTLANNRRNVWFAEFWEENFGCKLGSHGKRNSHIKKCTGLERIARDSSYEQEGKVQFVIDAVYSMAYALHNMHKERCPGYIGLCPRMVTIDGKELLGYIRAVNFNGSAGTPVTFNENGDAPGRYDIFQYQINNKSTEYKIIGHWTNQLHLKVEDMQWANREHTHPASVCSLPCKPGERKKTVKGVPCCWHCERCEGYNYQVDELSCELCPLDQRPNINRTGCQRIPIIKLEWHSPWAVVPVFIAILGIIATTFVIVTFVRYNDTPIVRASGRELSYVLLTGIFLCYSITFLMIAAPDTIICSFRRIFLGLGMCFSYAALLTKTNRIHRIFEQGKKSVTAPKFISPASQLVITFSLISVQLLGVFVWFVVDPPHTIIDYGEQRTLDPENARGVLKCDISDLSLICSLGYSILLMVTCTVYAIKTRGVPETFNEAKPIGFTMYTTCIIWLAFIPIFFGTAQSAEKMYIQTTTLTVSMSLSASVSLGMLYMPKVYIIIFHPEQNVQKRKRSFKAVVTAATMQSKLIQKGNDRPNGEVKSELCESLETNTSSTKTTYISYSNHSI
`CCOC(=O)C1CCN(C(=O)c2ccc(Br)o2)CC1` came in with a z-score of -0.901.

As for `Cc1cccc2cc(CN(CC3CCCO3)C(=O)c3cnccn3)c(=O)[nH]c12` (stereo not drawn), the z-score worked out at 0.229. Compound `O=C(Cc1ccccc1)NNS(=O)(=O)c1ccc([N+](=O)[O-])cc1` returned a z-score of -0.301. For the compound `Cc1ccc(N(C)S(=O)(=O)c2ccc(C)cc2)cc1`, the z-score is -0.435. As for `CNC(=S)N1CCN(c2ccccn2)CC1`, the figure is 0.101. With `N#CCCN/N=C(/Cc1nc2ccccc2[nH]1)c1ccc(Cl)cc1` the figure was 0.0234.

For `O=C(Nn1c(O)c(C=C2N=c3ccccc3=N2)sc1=S)c1ccc(Cl)cc1`, the z-score was -0.0506.

`CC1CCN(c2cc(N3CCOCC3)c(F)cc2[N+](=O)[O-])CC1`: the z-score is -0.674.

For `CN(Cc1ccccc1)S(=O)(=O)c1ccc(Cl)nc1`, the z-score was -0.102. With `O=C(NCc1ccccc1)c1ccc(-c2ccc(F)cc2)o1` the figure was -0.283.

As to `CC(C)C(=O)NC(=S)Nc1ccccc1C(=O)Nc1ccccc1`, the z-score came out at 0.292.

In turn, `Cc1cccc(-c2c3c(=O)n(C)c(=O)n(C)c3cn2CCO)c1` came in with a z-score of 0.939. With `O=C(Nc1ccc(Cl)cc1)c1ccncc1` the figure was -0.351. As for `N#Cc1c(-c2ccccc2)ccn(Cc2ccccc2Cl)c1=O`, the figure is -0.435; as for `O=C(NCC1CCCO1)c1ccc(CS(=O)(=O)c2ccc(Cl)cc2)o1` (stereo not drawn), 0.0189; as for `Clc1cccc(/C=N/Nc2ncnc3ccccc23)c1`, 0.218. As for `O=C(CS(=O)(=O)c1ccccc1)N1CCCCCC1`, the figure is -0.0311; as for `CC1CCN(C(=O)C(NS(=O)(=O)c2cccc3nsnc23)c2ccccc2)CC1` (stereo not drawn), 0.905. In the case of `CN(c1ccccc1C(=O)N1CCN(c2cccc(Cl)c2)CC1)S(C)(=O)=O`, the z-score was 1.16. As for `O=c1ccc2cc(S(=O)(=O)N3CCOCC3)ccc2o1`, the figure is 0.613.

Turning to `c1ccc(OCc2nc3c4c(ncn3n2)-c2ccccc2CC42CCCC2)cc1`, the z-score is -0.208. Compound `CCOC(=O)Nc1ccc(NC(=O)c2c(OC)cccc2OC)cc1` came in with a z-score of -0.203. As for `COC(=O)c1ccc(CSc2nc(-c3ccco3)cc(C(F)(F)F)n2)o1`, the figure is -0.121; as for `Cc1ccc(C(=O)c2cc([N+](=O)[O-])ccc2N2CC(C)OC(C)C2)cc1` (stereo not drawn), -0.215.

Compound `COc1cc(C2C(C#N)=C(N)N(Nc3ccccc3)C3=C2C(=O)CC(C)(C)C3)ccc1OCc1ccccc1` (stereo not drawn) showed a z-score of -0.0398. As for `CN(Cc1ccccc1)C(=S)NC(=O)c1ccc(-c2ccccc2)cc1`, the figure is active: 4.13; as for `Nc1nc(-c2c[nH]c3ccccc23)cs1`, -1.6; as for `CCOC(=O)c1c(C)[nH]c(C(=O)C(C)OC(=O)c2oc3ccccc3c2COC)c1C` (stereo not drawn), -0.347. As for `Cc1nnc(SCC(=O)N2CCc3ccccc3C2)n1-c1ccccc1`, the figure is -0.299. With `COc1ccc(Br)cc1C(=O)Nc1ccccc1-c1ccccc1` the figure was -0.245; with `COc1cccc(NC(=O)c2ocnc2C)c1`, -0.0866; with `CC(C)CNS(=O)(=O)c1ccc(CCC(=O)N2CCN(Cc3ccc4c(c3)OCO4)CC2)cc1`, -0.432. Take `O=C(c1ccc(N2CCOCC2)cc1)c1cccs1`: the z-score is -0.228. As for `CCc1ccc(C(=O)N/N=C/c2ccc(Cl)cc2Cl)nc1`, the figure is -0.0339; as for `COc1ccccc1Oc1c(C)oc2c(CN(C)C)c(O)ccc2c1=O`, -0.0321. As for `COc1ccc(-c2cc(CCCC(=O)NCc3ccccn3)no2)cc1`, the figure is 0.402. As to `Cc1cccc(NC(=O)c2sc(NC(=O)COc3ccccc3)c(C#N)c2C)c1C`, the z-score is -0.152. On to `O=C(Nc1ccc(-c2noc(COc3ccccc3Cl)n2)cc1)c1ccco1`, for which the z-score is -0.35. With `C=CC[N+](C)(C)CCCNC(=O)/C=N/O` the figure was -0.147. With `COc1cc(S(=O)(=O)NCCOC23CC4CC(CC(C4)C2)C3)c(OC)cc1Cl` the figure was 0.206. With `N#Cc1c(/N=C/c2ccc(Br)s2)sc2c1CCC2` the figure was 0.0576; with `COc1ccccc1C/C(N)=N/OC(=O)c1cccc([N+](=O)[O-])c1`, 0.0551. The compound `CCc1c(C)nc(SCC(=O)CC(=O)OC(C)C)c(C#N)c1C` gave a z-score of -0.0446.

In the case of `Cc1ccc(C)c(NC(=S)c2nc3ccccc3s2)c1`, the z-score was active: 8.98. With `Cc1nn(-c2ccccc2)c(C)c1/C=N\N1CCN(c2ccc(Cl)cc2)CC1` the figure was -0.183; with `O=C(CSCc1ccc(Br)cc1)Nc1ccc(S(=O)(=O)N2CCOCC2)cc1`, 0.242; with `CCOC(=O)C1CCCN(C(=O)c2cc3nc(-c4ccc5c(c4)OCO5)cc(C(F)(F)F)n3n2)C1` (stereo not drawn), -0.345. With `COc1cccc2c1N1C(=O)c3c(C(=O)O)cccc3C1CC2(C)C` (stereo not drawn) the figure was 1.11; with `O=C(NCCO)NC(=S)c1ccccc1`, -0.169. `C=CCNC(=O)c1onc(CSc2cc(C)cc(C)c2)c1C(=O)O` had a z-score of -0.208. With `CCOC(=O)c1coc(CNC(=O)c2c(C)oc3c2CCCC3)c1` the figure was -0.0273. As for `CCOc1nc(Nc2cc(Cl)ccc2OC)nc(OCC)n1`, the figure is -1.03; as for `O=C(CSc1nc2ccsc2c(=O)n1NC(=O)c1ccccc1)Nc1nccs1`, -0.202. With `COC(=O)c1cc2cc(NS(=O)(=O)c3ccc(C)cc3)ccc2s1` the figure was 0.00805. The compound `Cc1cccc(C)c1NC(=O)CC(NCc1ccco1)C(=O)O` (stereo not drawn) gave a z-score of 0.32. With `CC(c1ccccc1)n1c(-c2ccncc2)n[nH]c1=S` (stereo not drawn) the figure was 0.000563; with `Cn1c(=O)[nH]c2cc3ccccc3cc21`, -0.182; with `O=C(/C=C/c1ccccc1)N1CCC(c2ccccc2)C1` (stereo not drawn), -0.0939. Compound `O=C(Nc1ccccc1)O/N=C/c1ccncc1` yielded a z-score of -0.107. On to `Cc1cc(NC(=O)CSc2cc(Cl)ccc2Cl)n(-c2ccccc2)n1`, for which the z-score was 1.94. With `Cc1ccc(NC(=O)CSc2nnnn2-c2ccc3c(c2)OCO3)cc1C` the figure was -0.16; with `N#Cc1ccc(/C=N/N=C(N)N)cc1`, -0.322. Take `CCNc1nc(NC(C)C)nc(Nn2cnnc2)n1`: the z-score was -0.0436. As for `C(=N\n1cnnc1)/c1ccccn1`, the figure is -0.0685; as for `CCOC(=O)Cc1csc(NC(=O)c2cccc(OC)c2)n1`, 0.0443; as for `CN(C)C(=O)c1ccc(-n2nc(C(F)(F)F)c3c2CCCC3)cc1`, -0.213. As for `Nc1nonc1-c1noc(-c2ccccc2Br)n1`, the figure is -0.341.

In the case of `c1ccc(-c2nnc(-c3cccc(-c4nnc(-c5ccccc5)o4)c3)o2)cc1`, the z-score is -0.336. Compound `CCC(C)N(NC(C)=O)c1nc(Cl)nc(NC(C)(C)C)n1` (stereo not drawn) gave a z-score of -0.173. As for `CC1CN(C(=O)c2ccc3c(c2)OCO3)OC(c2ccccc2)O1` (stereo not drawn), the figure is -0.0491.

`O=C(N/N=C/c1ccco1)c1cc(C2CC2)nc2ccccc12` yielded a z-score of -0.165. As for `FCCCOc1ccc(-c2ccnc(-c3ccccc3)n2)cc1`, the figure is -0.771; as for `Cc1nn(C)c(C)c1NC(=O)CSc1nc(-c2ccccc2Cl)nc2c1cnn2-c1ccccc1`, 1.21.
